In all, about 310,000 compounds went through this assay and about 14,000 (4.5%) showed an effect of 50% or more. The effect is printed as a negative number. Some of the results follow.
Target: human ether-à-go-go-related gene (hERG) potassium channel (human, UniProt Q12809)
Test: primary screen, population patch clamp on CHO cells stably expressing hERG
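Note: peak tail current of the secondary pulse compared with the same well before compound.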

human ether-à-go-go-related gene (hERG) potassium channel, sequence (Q12809 whole entry, looked up): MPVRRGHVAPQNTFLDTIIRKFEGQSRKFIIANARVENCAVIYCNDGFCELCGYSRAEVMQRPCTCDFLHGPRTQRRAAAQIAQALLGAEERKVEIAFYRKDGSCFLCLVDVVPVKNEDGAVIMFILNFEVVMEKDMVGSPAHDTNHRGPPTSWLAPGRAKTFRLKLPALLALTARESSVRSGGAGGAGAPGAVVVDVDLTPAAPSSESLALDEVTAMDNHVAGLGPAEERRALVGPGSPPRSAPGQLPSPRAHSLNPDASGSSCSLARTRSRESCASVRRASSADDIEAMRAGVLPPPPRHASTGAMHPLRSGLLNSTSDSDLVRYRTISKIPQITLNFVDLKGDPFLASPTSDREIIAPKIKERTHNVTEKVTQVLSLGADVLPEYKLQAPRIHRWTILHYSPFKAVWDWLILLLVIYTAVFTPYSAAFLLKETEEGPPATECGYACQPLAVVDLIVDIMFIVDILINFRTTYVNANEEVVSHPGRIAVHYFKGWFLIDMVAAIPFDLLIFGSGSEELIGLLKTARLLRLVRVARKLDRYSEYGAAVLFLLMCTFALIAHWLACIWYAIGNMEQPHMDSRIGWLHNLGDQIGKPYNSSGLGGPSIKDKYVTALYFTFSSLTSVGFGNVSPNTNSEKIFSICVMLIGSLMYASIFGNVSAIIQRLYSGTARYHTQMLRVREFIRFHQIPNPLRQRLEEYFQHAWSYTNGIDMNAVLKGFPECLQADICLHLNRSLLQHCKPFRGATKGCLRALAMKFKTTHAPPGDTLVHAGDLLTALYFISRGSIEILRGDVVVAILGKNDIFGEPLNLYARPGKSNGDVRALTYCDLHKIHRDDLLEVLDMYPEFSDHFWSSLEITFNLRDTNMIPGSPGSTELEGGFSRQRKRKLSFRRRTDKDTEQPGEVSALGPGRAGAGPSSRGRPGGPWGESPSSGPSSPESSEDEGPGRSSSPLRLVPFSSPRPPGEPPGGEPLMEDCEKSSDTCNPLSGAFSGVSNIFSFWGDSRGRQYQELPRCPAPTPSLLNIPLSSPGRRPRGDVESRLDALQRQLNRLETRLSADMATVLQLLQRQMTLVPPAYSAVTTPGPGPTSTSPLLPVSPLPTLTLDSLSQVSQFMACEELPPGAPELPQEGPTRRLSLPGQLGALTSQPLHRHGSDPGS

SMILES | hERG current change (%, negative = inhibition) at 10uM
CSc1sc(C(=O)N(C)C)cc1S(=O)(=O)C(C)C | 1.94%
COc1ccccc1NC(=S)NC(=O)C(C)C | -21.8%
CC1(C)NC(=O)N(CC(=O)N2CCN(S(=O)(=O)c3cc(Cl)ccc3Cl)CC2)C1=O | 1.86%
CCOC(=O)c1c(NC(=O)C(C)OC(=O)C2=COCCO2)sc2c1CCCC2 (stereo not shown) | 8.73%
N#C/C(C(=O)N1CCOCC1)=C1/SC(Cc2ccc(F)cc2)C(=O)N1c1ccccc1 (stereo not shown) | -5.71%
COc1cc(CNc2ccc(N3CCN(C(C)=O)CC3)cc2)ccc1OCc1ccccc1 | -5.28%
Cc1ccc(-c2cc(C(=O)N/N=C/c3c(C)nn(C)c3C)c3ccccc3n2)c(C)c1 | -7.92%
Cl.Oc1ccccc1Nc1nc(NCc2ccco2)c2ccccc2n1 | -29.3%
CNc1ccccc1C(C)(C)c1cc(-c2cc(C)cc(C)c2)no1 | 12.6%
Cc1ccc(S(=O)(=O)NC(CC(=O)N2CCOCC2)c2ccco2)cc1 (stereo not shown) | 11.4%
CCCCNc1cnn(-c2ccccc2)c(=O)c1Cl | 7.55%
COc1cc(/C=C/C(=O)OCC(=O)NCc2cccs2)ccc1OCC#N | -8.86%
CCN(CC)CCOC(=O)c1ccc(NC(=O)/C=C/c2cccs2)cc1.Cl | -76.3%
CCCCCC(=O)Nc1cccc2ccccc12 | -2.38%
Cc1oc(-c2ccc(C(F)(F)F)cc2)nc1CN(Cc1ccccn1)C[C@@H]1CCC(=O)N1 | -38.2%
CCN(CC)c1ccc(C=Nc2ccccc2C)c(O)c1 | 0.0297%
COc1ccc(NC(=O)Cn2c(=O)n(CC(=O)NCc3ccco3)c(=O)c3ccccc32)cc1OC | 12.4%
CC(CCc1ccccc1)NC(=O)c1ccc(NC(=O)c2ccc(Cl)cc2Cl)cc1 (stereo not shown) | 6.31%
C/C(=N\NS(=O)(=O)c1ccc(Br)cc1)c1ccc2c(c1)OCO2 | -17.1%
O=C(N/N=C/c1ccc(O)c(O)c1)c1ccc(-n2cnnn2)cc1 | -3.29%
Cc1ccc(C)c(N2CCN(c3nc4ccccc4c(=O)n3Cc3ccccc3)CC2)c1 | 14.1%
O=C(CSc1nnc(-c2ccco2)n1Cc1ccccc1)NC(=O)NCc1ccccc1 | -13.3%

SMILES | hERG current change (%, negative = inhibition) at 10uM
COCCC(=O)N(Cc1ccc2c(c1)OCO2)C(C(=O)NC1CCCCC1)c1ccncc1 (stereo not shown) | -12.1%
CCOC(=O)C1Nc2ccc(C(=O)O)cc2C2C=CCC12 (stereo not shown) | 21%
CC(=O)Nc1ccc(NC(=O)C(C)OC(=O)c2ccc3[nH]c(C)c(C)c3c2)cc1 (stereo not shown) | 3.39%
O=C(NCc1ccccc1Cl)c1cc(=O)[nH]c2ccccc12 | 8.19%
CC1CCCCC1NC(=S)NC(=O)c1sc2ccccc2c1Cl (stereo not shown) | 11.8%
COc1ccccc1N1CCN(CC(=O)Nc2cccc(F)c2)CC1 | -28.1%
CSC1=NC(=O)/C(=C/c2ccc(SC)cc2)S1 | 38.5%
CCOC(=O)c1ccccc1NC(=O)c1ccccc1N(C)S(C)(=O)=O | -9.1%
C=CCSc1nnc(NC(=O)C2CC(=O)N(Cc3ccc(C)cc3)C2)s1 (stereo not shown) | -22.7%
CC1CN(c2ccc(NC(=S)NNCCC#N)cc2)CC(C)O1 (stereo not shown) | 13.1%
O=C(Nc1cccc(Cl)c1)c1ccc(=O)[nH]n1 | 3.6%
Cc1ccc(C(=O)OCC(=O)NC2CCCC(C)C2C)cc1S(=O)(=O)N1CCCCC1 (stereo not shown) | -2.28%
COc1ccccc1CNC(=O)Cc1ccc(Br)cc1 | -4.93%
Cn1c(SCc2ccccc2Cl)nc2c1c(=O)[nH]c(=O)n2C | 13.4%
S=C(Nc1ccc2c(c1)OCO2)NC1CCN(Cc2ccccc2)CC1 | -24.2%
CCOC(=O)C1CN(S(=O)(=O)c2ccc(OC)cc2)c2cc(Cl)ccc2O1 (stereo not shown) | 3.8%
CC1CCN(C(=O)c2ccc3c(=O)n4c(nc3c2)CCCCC4)CC1 | 3.73%
COC(=O)c1ccc(COc2cccnc2[N+](=O)[O-])cc1 | -3.09%
CCOC(=O)/C(C#N)=C/Nc1ccsc1C(=O)OC | 11.5%
O=C(CP(=O)(c1ccccc1)c1ccccc1)Nc1cccc(CP(=O)(c2ccccc2)c2ccccc2)c1 | 6.43%
Cc1cc(C)c(C(=O)OCC(=O)NC(=O)c2ccccc2)c(C)c1 | 11.9%
COc1ccc(C2/C=C\CN(C(=O)C3CC3)[C@H](Cc3ccccc3)C(=O)N2Cc2ccc(F)cc2)cc1 (stereo partly shown) | 5.22%

SMILES | hERG current change (%, negative = inhibition) at 10uM
C/C(N)=C(/C#N)C(=O)COC(=O)c1cc(-c2cccc(Br)c2)nc2ccccc12 | -13.5%
CCCCn1c(O)c(/C=C2/C=CC=N2)c(=O)[nH]c1=O | 6.34%
CCC1(c2ccccc2)NC(=O)N(Cc2ccc(C(=O)OC)cc2)C1=O (stereo not shown) | -5.74%
S=C(NCc1cccnc1)Nc1cc(Cl)cc(Cl)c1 | -4.96%
NS(=O)(=O)c1ccc(NC(=S)NCCc2ccccc2)cc1 | 22.1%
CC1(C)SC2c3ccccc3C(=O)N2[C@@H]1C(=O)NCCCN1CCOCC1 (stereo partly shown) | 7.08%
Cc1cc(C)c(C)c(OCC(=O)NCC2CCCO2)c1 (stereo not shown) | -1.35%
Cc1nn(C(C)C)c(C)c1CN1CCC(C(=O)Nc2cccc(-c3cccc(F)c3)c2)CC1 | -67.8%
CCOCCCNC(=O)c1c(-c2ccccc2)noc1C | 9.79%
CCc1noc(C)c1C(=O)Nc1cccc(S(=O)(=O)N(C)c2ccccc2)c1 | -22.1%
O=C(CC1C(=O)NCCN1Cc1c(F)cccc1Cl)NC1CCCC1 (stereo not shown) | -2.51%
CCOc1ccc(NC(=O)CN(C)C(=O)c2ccc(N3CCCC3)c([N+](=O)[O-])c2)cc1OCC | -49.1%
NC(=O)c1nn(-c2ccccc2)nc1NC(=O)Cn1nnc(-c2ccccc2)n1 | 26%
COc1ccccc1-n1c(CNc2c(C)cccc2C)nnc1SCC(=O)N1CCOCC1 | -19.1%
CCOC(=O)c1c(C)[nH]c(C(=O)COC(=O)CCS(=O)(=O)c2ccc(C)cc2)c1C | -2.1%
CCN1CCN(C2=C(NS(=O)(=O)c3ccccc3)C(=O)c3ccccc3C2=O)CC1 | -5.21%
CCOC(=O)Nc1ccc(S(=O)(=O)N2CCOCC2)cc1 | 6.38%
CCN(CC)C(=O)c1ccc(/C=C/c2c[nH]c3ccccc23)[n+](C)c1.[I-] | 21.4%
CCc1nnc(NS(=O)(=O)c2ccc(NC(=O)c3ccccc3C)cc2)s1 | 1.6%
O=C1C2CCCN2C(c2ccc(Br)cc2)N1c1ccc(F)cc1 (stereo not shown) | -7.21%
O/N=C/c1cccc[n+]1CCCCCC[n+]1ccccc1/C=N/O.[Br-] | 20.1%
CCC(CC)NC(=O)COC(=O)c1ccc(OCc2ccc(C(C)=O)cc2OC)c(OC)c1 | 1.91%

SMILES | hERG current change (%, negative = inhibition) at 10uM
CCn1nc(C)cc1C(=O)n1nc(C)c(Sc2ncccn2)c1C | 18.3%
Cc1ccccc1OCCNc1cc(N2CCN(CCO)CC2)ccc1[N+](=O)[O-] | -35.7%
Cc1ccc(N2C(=O)C3ON(c4ccccc4)C(c4ccncc4)C3C2=O)cc1 (stereo not shown) | -13%
COc1cc2c(cc1NC(=O)/C=C/c1ccc([N+](=O)[O-])cc1)oc1ccccc12 | 13.5%
COC(=O)CNC(c1ccccc1)c1cc(C)ccc1NS(=O)(=O)c1ccc(C)cc1 (stereo not shown) | -10.9%
NNC(=O)c1cccnc1Oc1ccccc1 | 8.19%
Cc1noc(C)c1COc1ccc(C(=O)NNC(=O)c2ccccc2O)cc1 | 2.21%
O=P(c1ccccc1)(c1ccccc1)c1cc(S(=O)(=O)[O-])ccc1O.[Na+] | 17.7%
O=C(NN1C(=O)C2C3C=CC(C4CC34)C2C1=O)c1ccc(Cl)cc1Cl (stereo not shown) | 3.48%
O=C(CSc1ccccn1)Nc1ccc2c(c1)oc1ccccc12 | 12.8%
COc1cc(/C=C2/C(=O)N(c3ccc(Br)cc3)N=C2C)cc([N+](=O)[O-])c1O | 17.4%
O=C(N/N=C1\CCSc2ccc(F)cc21)c1cccnc1 | 6.42%
COc1ccccc1CNC(=O)CCCn1c(=O)c2ccccc2n(CC(=O)NC2CCCC2)c1=O | 4.29%
COc1ccc(-c2nnc(NC(=O)c3cc(C)on3)s2)cc1 | -20.3%
COc1c(C)cc(S(=O)(=O)NC2CC(C)(C)NC(C)(C)C2)c(C)c1C | -4.41%
CCOC(=O)c1ccc(-c2ccc(/C=N/NC(=O)CN(c3ccccc3Cl)S(C)(=O)=O)o2)cc1 | 0.449%
CCN(c1cccc(C)c1)S(=O)(=O)c1ccc2c(c1)NC(=O)CS2 | -7.28%
Cc1ccc(C(=O)Oc2cc(C)[nH]c(=O)c2[N+](=O)[O-])cc1 | 12%
CC1(c2ccc(OC(F)F)cc2)NC(=O)N(CC(=O)N2CCN(C(=O)c3ccco3)CC2)C1=O (stereo not shown) | -15%

— PMC4336329 (PLoS ONE, 2015)
